In patent EP4806911A1, “TRIPLE AGONIST COMPOUND” (Chengdu Aoda Biotechnology Co., Ltd, priority 2023, dated 2025):
pEC50: −log10 of the molar value. At least one compound was matched to its structure with a doubt left.

Legend:
Format in all cases: cell-based
[1] = target: T1, GIPR (Homo sapiens, UniProt P48546); test: GIP activity test (cAMP, chemiluminescence); conditions: CHO-K1 cell line stably expressing GIPR; relative luminescence units; read-out: GIP [EC50(pmol)]
T1 construct: expressed in transfected cells; host or cells: CHO-K1
T1 sequence (P48546 22-466): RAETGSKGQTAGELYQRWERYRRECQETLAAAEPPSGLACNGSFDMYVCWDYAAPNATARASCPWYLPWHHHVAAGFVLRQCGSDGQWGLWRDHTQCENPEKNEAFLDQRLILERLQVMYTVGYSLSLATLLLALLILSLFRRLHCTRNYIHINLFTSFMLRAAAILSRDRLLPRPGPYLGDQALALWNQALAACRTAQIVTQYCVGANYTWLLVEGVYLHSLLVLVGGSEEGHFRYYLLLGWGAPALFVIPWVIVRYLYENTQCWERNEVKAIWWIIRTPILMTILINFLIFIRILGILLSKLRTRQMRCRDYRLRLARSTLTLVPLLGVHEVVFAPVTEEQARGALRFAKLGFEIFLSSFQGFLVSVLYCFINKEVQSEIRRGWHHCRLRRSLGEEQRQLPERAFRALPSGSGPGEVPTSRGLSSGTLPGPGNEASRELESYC
Protocol: (§1) Upon stimulation by a specific agonist, GIPR activates the intracellular adenylate cyclase signaling pathway, resulting in an increase in cAMP levels and ultimately leading to insulin production and secretion. A cell line stably transfected with GIPR was stimulated with test compounds, thereby rapidly increasing intracellular cAMP levels. The relative luminescence units (RLU) of cells stimulated at various concentrations were measured by a chemiluminescence method, and the EC50 value of the agonist was calculated accordingly. This activity assay method is currently a commonly used method for evaluating GIP receptor agonist activity both domestically and internationally. A CHO-K1 cell line stably expressing GIPR was used. The stable cells were stimulated with agonists at different concentrations, and the relative luminescence units after stimulation at each concentration were measured to calculate the EC50 value of the agonist.

[2] = target: T2, GCG-R (Homo sapiens, UniProt P47871); test: GCG activity test (cAMP, chemiluminescence); conditions: CHO-K1 cell line stably expressing GCG-R; relative luminescence units; read-out: GCG [EC50(pmol)]
T2 construct: expressed in transfected cells; host or cells: CHO-K1
Protocol: as §1, with “GCG-R” for “GIPR”, “GCG” for “GIP”

[3] = target: T3, GLP-1R (Homo sapiens, UniProt P43220); test: GLP-1 activity test (cAMP, chemiluminescence); conditions: CHO-K1 cell line stably expressing GLP-1R; relative luminescence units; read-out: GLP-1 [EC50(pmol)]
T3 construct: expressed in transfected cells; host or cells: CHO-K1
Protocol: as §1, with “GLP-1R” for “GIPR”, “test” for “assay”, “GLP-1” for “GIP”

T3 sequence (P43220 24-463, species assumed): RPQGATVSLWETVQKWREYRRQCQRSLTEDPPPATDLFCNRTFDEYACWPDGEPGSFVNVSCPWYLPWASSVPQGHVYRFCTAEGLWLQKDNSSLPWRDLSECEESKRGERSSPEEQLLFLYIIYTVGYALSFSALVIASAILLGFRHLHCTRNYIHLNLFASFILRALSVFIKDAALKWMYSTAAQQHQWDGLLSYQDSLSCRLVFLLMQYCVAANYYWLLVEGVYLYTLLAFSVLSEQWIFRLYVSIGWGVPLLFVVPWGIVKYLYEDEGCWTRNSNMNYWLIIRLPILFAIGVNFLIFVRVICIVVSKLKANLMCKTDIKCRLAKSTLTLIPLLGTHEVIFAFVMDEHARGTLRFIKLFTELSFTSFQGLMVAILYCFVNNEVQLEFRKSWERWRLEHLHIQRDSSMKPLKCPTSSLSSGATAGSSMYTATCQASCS
T2 sequence (P47871 26-477, species assumed): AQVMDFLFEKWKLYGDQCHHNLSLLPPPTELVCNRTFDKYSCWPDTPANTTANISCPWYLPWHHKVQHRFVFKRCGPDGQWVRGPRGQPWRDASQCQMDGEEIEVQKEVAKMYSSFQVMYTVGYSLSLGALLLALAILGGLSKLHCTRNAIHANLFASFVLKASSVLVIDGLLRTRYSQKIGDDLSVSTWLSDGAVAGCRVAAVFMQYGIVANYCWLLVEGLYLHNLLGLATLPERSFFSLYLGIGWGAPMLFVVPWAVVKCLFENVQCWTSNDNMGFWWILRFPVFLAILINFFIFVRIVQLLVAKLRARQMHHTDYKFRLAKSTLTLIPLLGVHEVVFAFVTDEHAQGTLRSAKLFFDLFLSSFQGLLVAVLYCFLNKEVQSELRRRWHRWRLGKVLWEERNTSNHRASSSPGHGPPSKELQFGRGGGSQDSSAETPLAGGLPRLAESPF

## CC[C@H](C)[C@H](NC(=O)[C@H](Cc1ccccc1)NC(=O)[C@H](C)NC(=O)C(C)(C)NC(=O)[C@H](CCC(N)=O)NC(=O)[C@H](C)NC(=O)[C@H](CCCCNC(=O)COCCOCCOCCOCCOCCNC(=O)CC[C@H](NC(=O)CCCCCCCCCCCCCCCCCCC(=O)O)C(=O)O)NC(=O)[C@H](CCCCN)NC(=O)[C@H](CC(=O)O)NC(=O)[C@H](CC(C)C)NC(=O)C(C)(CC(C)C)NC(=O)[C@@H](NC(=O)[C@H](CO)NC(=O)[C@H](Cc1ccc(O)cc1)NC(=O)[C@H](CC(=O)O)NC(=O)[C@H](CO)NC(=O)[C@@H](NC(=O)C(C)(Cc1ccccc1F)NC(=O)[C@@H](NC(=O)CNC(=O)[C@H](CCC(N)=O)NC(=O)C(C)(C)NC(=O)[C@@H](N)Cc1ccc(O)cc1)[C@@H](C)O)[C@@H](C)O)[C@@H](C)CC)C(=O)N[C@@H](CCC(=O)O)C(=O)N[C@@H](Cc1ccc(O)cc1)C(=O)N[C@@H](CC(C)C)C(=O)N[C@@H](CC(C)C)C(=O)N[C@@H](CCC(=O)O)C(=O)NCC(=O)NCC(=O)N1CCC[C@H]1C(=O)N[C@@H](CO)C(=O)N[C@@H](CO)C(=O)NCC(=O)N[C@@H](C)C(=O)N1CCC[C@H]1C(=O)N1CCC[C@H]1C(=O)N1CCC[C@H]1C(=O)N[C@@H](CO)C(N)=O (stereo partly drawn) [Compound 12]
[1]
  pEC50: 10.57
[2]
  pEC50: 9.79
[3]
  pEC50: 10.30

## CC[C@H](C)[C@H](NC(=O)[C@H](Cc1ccccc1)NC(=O)[C@H](C)NC(=O)C(C)(C)NC(=O)[C@H](CCC(N)=O)NC(=O)[C@H](C)NC(=O)[C@H](CCCCNC(=O)COCCOCCOCCOCCOCCNC(=O)CC[C@H](NC(=O)CCCCCCCCCCCCCCCCCCC(=O)O)C(=O)O)NC(=O)[C@H](CCCCN)NC(=O)[C@H](CC(=O)O)NC(=O)[C@H](CC(C)C)NC(=O)C(C)(CC(C)C)NC(=O)[C@@H](NC(=O)[C@H](CO)NC(=O)[C@H](Cc1ccc(O)cc1)NC(=O)[C@H](CC(=O)O)NC(=O)[C@H](CO)NC(=O)[C@@H](NC(=O)C(C)(Cc1ccccc1)NC(=O)[C@@H](NC(=O)CNC(=O)[C@H](CCC(N)=O)NC(=O)C(C)(C)NC(=O)[C@@H](N)Cc1ccc(O)cc1)[C@@H](C)O)[C@@H](C)O)[C@@H](C)CC)C(=O)N[C@@H](CCC(=O)O)C(=O)N[C@@H](Cc1ccc(O)cc1)C(=O)N[C@@H](CC(C)C)C(=O)N[C@@H](CC(C)C)C(=O)N[C@@H](CCC(=O)O)C(=O)NCC(=O)NCC(=O)N1CCC[C@H]1C(=O)N[C@@H](CO)C(=O)N[C@@H](CO)C(=O)NCC(=O)N[C@@H](C)C(=O)N1CCC[C@H]1C(=O)N1CCC[C@H]1C(=O)N1CCC[C@H]1C(=O)N[C@@H](CO)C(N)=O (stereo partly drawn) [Compound 10]
[1]
  pEC50: 10.57
[2]
  pEC50: 9.74
[3]
  pEC50: 10.22
